Measured values: the supplement of paper PMC3334620
Over roughly 33,000 sequences, “E-score (-0.5 to 0.5)” has its median near -0.016; the highest 2% begin near 0.31. This is one part of the list.

The sequences below were run against Cst6 (UniProt P40535) (assay: PBM E-score (8-mer binding enrichment) (E-score (-0.5 to 0.5)); higher = stronger / more preferred TF binding; most listed sequences are background and not binding sites). Conditions: protein concentration: 200 nM; construct: GST-DNA-binding domain.
How it was run: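 Universal all-10-mer Agilent arrays, fresh or stripped once, were converted to double-stranded form by primer extension. GST-tagged yeast transcription factors from PURExpress in vitro transcription/translation, full-length or DNA-binding domain only, were applied at about 100-200 nM and detected with fluorescent anti-GST. After masliner normalisation, the Universal PBM Analysis Suite scored each ungapped eight-base word together with its reverse complement by E-score.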

Sequence	PBM E-score
AGCCACTC	-0.129
GGCATAGA	-0.0127
GATGTTAC	0.268
CGAAAAAA	0.276
ATCCCAGC	-0.175
CTTACCTC	-0.0973
ACGCTGCG	-0.128
GACGGCCA	-0.163
ATAAAGAG	0.117
AAACGTGT	0.11
CACTGATG	0.0905
GCGCCGTA	0.384
TCATGAGA	0.214
CAAAGGAG	0.0052
CATGACGA	0.438
ACGGTACA	0.028
AATGGTCG	-0.143
AAGGGGGT	-0.299
CAGTCCTC	-0.209
ATCCCGTC	-0.0314
CAAGCCGC	-0.124
GCTTTGTA	0.091
ATTGCATG	0.261
CCCTGCCC	-0.341
AGTAAATG	0.0991

Sequence	PBM E-score
AACGATCC	-0.19
ACTTTGAG	0.0324
ACCTGTGA	0.112
AGGTGTGG	-0.257
GTCTAGGA	-0.17
GTATTTTA	0.121
AGATGGCG	0.107
CACCATAA	0.106
ATCATTCG	0.264
TACCAGCA	0.0587
GGGAGCAC	-0.335
AGTAGCAG	-0.0246
ATCGCGAG	0.0213
GAAGTTAC	0.183
GATTGTAC	-0.0207
CCAATACA	0.00935
ACTTATAA	0.119
TCTGAGAA	0.0304
ATAAGTCA	0.0943
CAAGCCCG	-0.165
GTTTCTCA	-0.0106
TAGAGGCA	-0.0879
AAGCTGGA	-0.208
CACCATCA	0.147
AACTGGTG	-0.164

Sequence	PBM E-score
CAATCGAA	0.135
CAAGCCCA	-0.177
GATATAGC	0.0466
AGATACGG	0.133
TAAAGGGA	-0.112
AAGTCCGA	-0.268
CCTTTTAA	0.0673
CTGCGATA	-0.0624
AAGAGCCA	0.0603
GACACATC	0.0845
GACACTCC	0.0359
CCAGGAGC	-0.248
ATCCAATG	0.0921
CTCATGGA	-0.00062
GGGATGTA	-0.0844
AAGAGACC	-0.125
GTATTGAC	0.148
ACGACCGA	-0.136
GGGGAAAC	-0.0822
GAGTCGAC	-0.112
AGAAAGTC	-0.0873
ATAAATCG	0.167
ACATAGTC	-0.00669
AGGCTTGG	-0.173
AACCCGCA	-0.099

Sequence	PBM E-score
CCGGAAAC	-0.162
GGTCAGAA	-0.137
GGAATTAA	0.215
CATACAAG	0.0443
CCATGAGC	-0.157
CTCCGAAC	-0.166
ATGTGTTG	0.222
ACTCTCAG	0.14
ACCCTGCT	-0.34
CGTCGACA	0.232
GACAAGCC	-0.0452
GACTGGGA	-0.111
ATAGCGAG	-0.0715
GACAGGGC	0.016
CTCCCAAC	-0.175
ACTCAGCA	-0.148
CTCGTCGC	-0.0701
AGGTCAAA	0.0867
TCTCCAGA	-0.201
AAGAGTGA	0.162
AGAACACT	0.0744
GCGTCATA	0.463
CTACCAAA	-0.00544
ACCTGTGC	-0.0633
GGTTGCTA	-0.207

Sequence	PBM E-score
CGAGTGAG	-0.0113
GTCTTCGA	-0.117
ACCAGAGG	-0.12
ACAATAGG	-0.0365
AATAAAGA	0.234
AATGCATA	0.0177
AGCGGTAA	-0.0855
ATAGGCAC	0.0161
AGTTAGCA	0.0735
ACTATACG	0.0511
AGCCCGAT	-0.149
TGTCCCAA	-0.0255
ATCGTGGG	0.00964
ATAGTCTG	-0.0571
CGTATCTC	0.0841
AGAGGCCA	-0.23
GACTCCTC	-0.2
AGTGCGAG	-0.21
TCGTCTAA	-0.0165
CCGGGATC	-0.241
ACGTATGG	0.158
ACTTCAAG	0.0998
ACTGTCTA	0.0786
GCTTCGCA	-0.222
AACAGGGG	-0.144

Sequence	PBM E-score
AGGGCAAG	-0.0177
ATACGATG	0.17
GAGCGAGC	-0.0566
ATGAACAC	0.105
GCAAAGAA	0.00218
AAAAATTT	0.15
ACGAAAAT	0.256
CACAGCCC	-0.181
GTGAAGGA	-0.0818
CAAACCGA	0.0213
ATATTCAT	0.168
CATACCGG	-0.0839
CCATCTCG	-0.136
CTGGTGTA	-0.0853
ACGATTGG	-0.0162
AGCGGTTA	-0.0101
AGGGAGCG	-0.271
ATGCCTTC	0.0129
ACCGACCA	-0.013
ATCAAGGA	-0.0436
AAAGATCA	0.138
ACACCTAC	-0.0999
ATGTAAAA	0.144
CCTTTCCC	-0.141
ACCGTCTC	-0.0847

Sequence	PBM E-score
CCGTTGAC	0.0706
GATTTTAA	0.186
ACAACAGG	-0.00954
CTAAAAAA	0.273
ATGAGTGC	0.0932
ATGCAAAT	0.0716
AACCATCA	0.0459
ATTCATAC	0.214
GCTCTACA	-0.0228
AGTACTAC	0.232
AGAGAAGC	-0.0869
GGCTGGCA	-0.275
AAAATCAG	0.116
CAAGGTAA	0.0213
ATGGATTG	0.0726
CTCTTATC	0.14
CTTATCAA	0.151
ACAAGGGC	-0.155
AGTGTAAG	-0.11
CCCTAAGG	-0.295
AGCGGAGA	0.12
TCAGTCAA	0.102
GATTGCGC	0.0307
CAGGGCGC	0.2
CGCGGAAC	0.139

Sequence	PBM E-score
GGCGACAA	-0.0515
ACAGCCAA	0.0206
AGGCGACG	0.0326
GGGGACCC	-0.416
AATCTCCT	-0.0446
CCCGTGAC	0.151
GTCGGATA	-0.064
ACTATATC	0.128
CATAGCTA	-0.114
ATGGAGAG	-0.0364
CGAGGCCA	-0.153
CTTTCCTA	-0.163
AGGTTGGA	-0.0474
ATCGTGTG	0.0247
CTGTTGAA	0.155
TACCCCGA	-0.0623
GTACAAAA	0.181
ACTCAAGG	-0.117
ATTTCACC	0.135
CAACGTTC	-0.13
ATATCCCA	0.0771
CAGTTGTA	-0.0936
CGTCAATC	0.337
AGAAGTAG	-0.0196
ATTTTGGC	0.166

Sequence	PBM E-score
ACTGGTTA	0.0197
ACTTTAAC	0.00978
ACAGGCCA	-0.202
CGCGGATA	0.142
GGTAGTCA	-0.245
ATCACCAG	0.116
ACTGAAAA	0.124
CTTCTCTC	-0.00992
ACGCCTCG	0.137
CTTAGCTA	-0.00204
AGCTACGC	0.00388
TAAAGAAA	0.273
ACGTTAGG	0.112
ACGAACGC	0.0777
GGAACTCA	-0.248
TCATGGAA	0.199
AGTAGCAC	-0.0285
AAGGATAG	-0.0331
CTGACCGC	-0.131
TCATAGGA	0.152
ACATGGGT	0.00268
ACAAGGGT	0.0183
CCGGAGAC	-0.0155
CAGAGGAC	-0.168
ACTAGTAT	0.172

Sequence	PBM E-score
ATAGAACC	-0.17
ACAGACCA	-0.0613
ACGGATCT	0.0414
GTATTCGA	-0.12
GTGGGCGA	-0.0822
CCATGAAA	0.139
CTAGCCAC	-0.244
GCGTTGTA	0.033
AGATTTTA	0.119
TATTGGGA	0.0862
GGAGGACC	-0.27
CACCGATG	0.0639
CCCGATTA	0.0746
AGGACTGC	-0.332
AGACTCAG	-0.285
GGTACTAC	-0.0399
CTTCGGGC	-0.323
AGTAGCCC	-0.299
CGCAGTTC	-0.106
CCACTAAG	-0.209
AGTGGCAT	-0.0032
GCGAAGCA	-0.143
GGGAAGAC	-0.271
TAGCTAAA	0.0924
AGGGATGG	-0.216

Sequence	PBM E-score
AGTTTTGC	0.222
CGGACTAA	-0.023
CACACCAG	0.00466
ACGACGCA	0.145
AATCCCCA	-0.116
CTGCACAG	-0.21
ATCCTCAA	0.0384
GCAATCGA	-0.0177
ATTACGCG	0.326
ACGTCATG	0.495
ACCAGCGA	-0.177
CGGGTAAC	-0.124
CAGCCGCA	-0.0628
ACCTTTGA	-0.156
CACCGGAA	0.0999
CCATGTGA	-0.00346
AAATTAGA	0.186
CTCGTTGA	0.0901
TCCAATCA	-0.122
ATTGACAG	0.0614
GAAAGTCC	-0.268
GAATTCAC	0.0689
GTATCCAA	-0.168
CGCTTGAG	-0.0977
AAGCGACA	0.0385

Sequence	PBM E-score
AAGGTAGT	-0.0235
AACGCAGC	0.0257
AGTAACGA	-0.0647
GACACATA	0.0617
AGGAACTC	-0.0807
AGATAAAA	0.209
AATTTCGT	0.206
AGGCCGCA	-0.0331
ATTATATA	0.239
CCGACACA	-0.179
CGATATCA	0.145
CACCGTCC	-0.173
AATCGCCG	0.195
GCCGGTGA	0.0691
ACTGTTCA	-0.147
TCGCTAAA	0.115
AGGTCCAT	-0.0689
CACTCACA	-0.0959
CATACCTC	0.0788
CCTGGGCA	-0.248
ATTAAGCG	0.108
CGTCCGGA	-0.0761
ACGTCTAT	0.0358
CACGTATA	0.167
GGCAAACC	-0.204

Sequence	PBM E-score
AGCGTTCA	-0.286
TAACCTCA	0.0767
CATCGGAC	-0.157
AGCTATGA	0.101
AAATCTGA	0.205
GCGGTGAA	0.0906
ACCATCCA	-0.151
CCATCAAG	-0.165
GGACTCCA	-0.178
AGAAAACG	0.168
CCCCATGA	0.144
GACCCACC	-0.203
GATACCCA	-0.139
AACGCTCC	-0.00595
CAATCTGG	-0.096
CACATTAA	-0.00666
TAGATCAA	0.0563
AAAGTGAT	0.199
AAAGCGTA	-0.0932
GCACGATA	0.0369
ACTAAAGC	0.0156
AGCCTGAC	-0.0605
GCATGTAA	0.0218
ATCAGGCA	-0.0532
ACCTCTCT	-0.245

Sequence	PBM E-score
AAACAGCC	-0.0862
GCTACGAA	0.0568
ATGATTGG	0.0663
ACTCATCC	0.142
AGTTACTA	0.0861
CGATCAAG	-0.116
GACTAGGA	-0.176
CTGGCCTA	-0.214
GAGCAACA	-0.118
CACGGCTA	0.253
TCGGACCA	-0.145
CTATGACC	0.193
AACTATCG	-0.12
GCGAGATA	0.0372
ACGAGAGC	-0.0859
AGGGCTAA	0.015
ACTAGCTA	-0.0397
CGCTTCAA	-0.0939
CCTTTCGA	-0.0836
